Test results as given in patent US20240383985A1 (published 2024).

Experiments:
[1] = target: T1, CS1-Fc (UniProt Q9NQ25 23-226); test: ELISA
T1 chain: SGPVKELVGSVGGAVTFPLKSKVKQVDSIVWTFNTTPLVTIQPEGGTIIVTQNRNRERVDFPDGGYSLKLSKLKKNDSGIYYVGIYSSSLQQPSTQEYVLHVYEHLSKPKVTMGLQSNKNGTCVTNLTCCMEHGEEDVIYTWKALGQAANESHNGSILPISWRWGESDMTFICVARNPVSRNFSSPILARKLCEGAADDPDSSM

[2] = target: T2, CD38 naturally expressed on Daudi cells (human, UniProt P28907 1-300); test: FACS; FIG. 23
[3] = target: T2, CD38 naturally expressed on Daudi cells; test: FACS; FIG. 24

B1: QP33123313 (protein)
chain 1: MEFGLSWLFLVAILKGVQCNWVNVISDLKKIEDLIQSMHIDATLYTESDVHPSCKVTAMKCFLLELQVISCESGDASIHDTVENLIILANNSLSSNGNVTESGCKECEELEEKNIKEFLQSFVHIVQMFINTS
chain 2: MEFGLSWLFLVAILKGVQCITCPPPMSVEHADIWVKSYSLYSRERYICNSGFKRKAGTCSLTECVLNKATNVAHWTTPSLKCIRDPALVHQRSGGSGGGGSGGGSGGGGSLQ[sequence of human IgG1 Fc with changes omitted]
EC50 [1]: ~4 µg/mL | EC50 [2]: ~5.35 nM | EC50 [3]: 0.833 nM
